From PubChem BioAssay (NCI)
“And” between values parts separate entries of the source, which are not always exact repeats. Equal entries are not always repeated.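 How tested: cells in 96-well plates exposed to compound for 48 hours at five concentrations. Abbreviation: GI50, concentration required for 50% inhibition of growth. TGI denotes the concentration required for complete inhibition of growth.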

Tested on: NCI-H322M lung
Assay: growth of human tumour cells (NCI), 48 h

Row | SMILES | GI50 | TGI [µM]
1 | CCN1/C(=C/C=C/c2n(-c3ccccc3)c3ccc(-c4nc5ccccc5s4)cc3[n+]2CC)N(c2ccccc2)c2ccc(-c3nc4ccccc4s3)cc21 | 1.4 µM | > 50
2 | CCN(CC)c1ccc(/C=C2/C[N+](C)(C)C/C(=C/c3ccc(N(CC)CC)cc3)C2=O)cc1 |  | 48.9
3 | CN(c1cc2ncc(=O)[nH]c2cc1NC(N)=NCc1ccc(Cl)cc1)C1CCCCC1 | 8.14 µM | 15.3
4 | C=C1[C@H](OC(=O)C(C)C)[C@]23CC4(O)[C@@H]5[C@@]6(C)CCC[C@]57C([C@@H]2C[C@@]1(O)[C@H](O)[C@@H]73)N4C6 |  | > 100
5 | N#CC(c1nc2ccccc2s1)c1ncnc(Cl)c1[N+](=O)[O-] (stereo not given) |  | 30.9
6 | Cc1ccc(S(=O)(=O)n2c3c(c4ccccc42)CCN2C(=O)C(S(=O)(=O)c4ccccc4)=CCC32)cc1 (stereo not given) |  | 1.09
7 | CC(=O)N1CN2C(=O)CCC2c2ccccc21 (stereo not given) |  | > 100
8 | CN(C)c1ccc(/C=C(\NC(=O)c2ccccc2)C(=O)NCC(=O)O)cc1 |  | > 100
9 | Cc1ccc2c(c1)c1nc3cc(C)c(C)cc3nc1n2CCN(C)C | 1.96 µM | 7.02
10 | CCCOC(=O)C1CCC(=O)N1C(=O)C(C)Cl (stereo not given) |  | > 100
11 | O=[N+]([O-])c1ccc(-c2nc3ccc([N+](=O)[O-])cc3[nH]2)cc1 |  | > 100
12 | COc1ccc(NC(=O)CC(=O)N2N=C(N(CCC#N)c3ccccc3Cl)CC2c2ccccc2)cc1 (stereo not given) |  | > 100
13 | CO/C=C(/C(=O)OC)c1ccccc1[C@@H]1CC1c1cccc(F)c1 (stereo not given in full) |  | > 100
14 | COc1ccc(-n2cc(-c3cc(OC)c(OC)c(OC)c3)nc2SCc2ccccc2)cc1 | > 100 µM | > 100
15 | CCC1C(=O)OCc2c1cc1n(c2=O)Cc2cc3ccccc3nc2-1 (stereo not given) |  | > 100
16 | COC(=O)C1=C(C)NC(C)=C(C(=O)OC)C1/C=C(\Cl)c1ccc(Cl)c(Cl)c1 | 17.5 µM | 33.4
17 | O=[N+]([O-])c1ccccc1N=Nc1c(O)[nH]c2ccc(Br)cc12 |  | 44.8
18 | CSc1nc(NC2OCC(OC(C)=O)C(OC(C)=O)C2OC(C)=O)c(N=C(C)C(C)=O)c(=O)[nH]1 (stereo not given) |  | > 100
19 | Clc1ccc(/C=C/c2cc(N3CCOCC3)c3cc(Cl)c(Cl)cc3n2)cc1 | > 100 µM | > 100
20 | CC(C)(O)C#Cc1ccc(/C=C/C(=O)c2ccccc2)s1 | 18.7 µM | 33.7
21 | Cc1ccc(Cc2n[nH]c(=O)n2-c2ccccc2)cc1 |  | > 100
22 | CC(=O)O[C@@]12CO[C@@H]1C[C@H](O)[C@@]1(C)C(=O)[C@H](O)C3=C(C)[C@@H](OC(=O)[C@H](O)[C@@H](NC(=O)OC(C)(C)C)c4ccccc4)C[C@@](O)([C@@H](OC(=O)c4ccccc4)[C@H]21)C3(C)C | 0.027 µM and 0.0064 µM | 
23 | c1ccc(C2CC(c3cccc(Nc4ccncc4)c3)=NN2c2ccccc2)cc1 (stereo not given) | 1.63 µM | 3.12
24 | CCOC(=O)c1c(-c2ccccc2)oc(-c2ccccc2)c1C(=O)OCC |  | > 100

Row | SMILES | GI50 | TGI [µM]
25 | Cn1cc(C2=C(c3cccc(N)c3)C(=O)NC2=O)c2ccccc21 | > 25 µM | > 25
26 | N#Cc1n[nH]n(C2CCCCC2)c1=O |  | > 100
27 | O=C(C=P(c1ccccc1)(c1ccccc1)c1ccccc1)c1cccc(-c2cccc([N+](=O)[O-])c2)c1 |  | > 100
28 | [Cl][Sn]([Cl])([c]1ccccc1)[c]1ccccc1 | 18.3 µM | 32.3
29 | C/C(=C\c1ccccc1)C(=O)NCc1ccc(C(=O)NCCC(C)C)cc1 |  | > 100
30 | NC(=O)c1cccc(C2OC(COP(=O)(O)O)C(O)C2O)c1 (stereo not given) |  | > 50
31 | Cc1ccccc1C1OC(=O)c2ccccc21 (stereo not given) |  | > 100
32 | C#CCn1ncc2c(SC)ncnc21 |  | > 100
33 | CC(C)(C)n1c(=O)[nH]n(C2NN=Cc3cccc4cccc2c34)c1=O (stereo not given) |  | > 100
34 | Cn1ccc(C(=O)N2CCSC2=S)c(OCc2ccccc2)c1=O |  | > 100
35 | O=C1NC(=O)C(CC(C(=O)C(=O)Nc2ccccc2Cl)C(=O)c2ccc3ccccc3c2)C(=O)N1 (stereo not given) |  | > 100
36 | Nc1ccc2nc(NCc3ccc(F)cc3)cnc2c1 |  | > 100
37 | CCOc1ccccc1NC(=O)c1cc2ccccc2cc1O | 2.91 µM | 15.9
38 | COc1cc2c3c(n(CCCN(CCN)CCCn4c5c(c6cc(OC)c(OC)cc6c4=O)C(=O)c4cc6c(cc4-5)OCO6)c(=O)c2cc1OC)-c1cc2c(cc1C3=O)OCO2 | 1.9 µM | 
39 | c1ccc2c(c1)Nc1ccccc1[P+]21c2ccccc2Nc2ccccc21 |  | 3.66
40 | S=c1nc(Cc2ccc(Cl)cc2)[nH][nH]1 |  | > 100
41 | Nc1nc2sc3ccccc3c(=O)n2n1 |  | > 100
42 | O=C1c2cccnc2C(=O)C2C3C=CC(C3)C12 (stereo not given) |  | 93.3
43 | CCOCN1COCN=C1NC#N |  | > 100
44 | Cn1c(-c2cccs2)cc(-c2ccccc2)c1-c1cccs1 |  | > 100
45 | N#CC(/C(=N/NC(=O)C(=O)NN)C(=O)Nc1nc([N+](=O)[O-])cs1)c1ccc(Cl)cc1 (stereo not given) |  | > 100
46 | Cc1ccc(O)c(C(c2ccc([N+](=O)[O-])cc2)c2cc(C)ccc2O)c1 |  | 35.9
47 | O=S(=O)(N/N=C/c1ccc(Cl)c(Cl)c1)c1ccccc1 |  | > 100
48 | C#CCNC(=O)NCCCC(NC(C)=O)C(=O)NCc1ccccc1 (stereo not given) |  | > 100

Row | SMILES | GI50 | TGI [µM]
49 | N=C(N)c1ccc(OCCOCCOc2ccc(C(=N)N)cc2)cc1 | 79.5 µM | > 100
50 | CC(C)c1c(C(=O)Nc2ccccc2)c(-c2ccccc2)c(-c2ccc(F)cc2)n1CC[C@@H]1CC=CC(=O)O1 | 1.7 µM | 3.28
51 | CCCCCCCCCCCCCCCc1ccc(OCC(O)CO)cc1 (stereo not given) |  | > 100
52 | CC1=NOC2(C1)C(=O)Nc1ccccc12 (stereo not given) |  | > 100
53 | CCOC(=O)C[C@@H]1C2(C=C[C@@]13CO3)OCC(C)(C)CO2 |  | > 100
54 | CC[O-].CC[O-].O=C([CH-]C(=O)c1cccnc1)c1ccccc1.O=C([CH-]C(=O)c1cccnc1)c1ccccc1.[Ti+4] | 89.8 µM | > 100
55 | CCCCCCCC(=O)NCC(O)CNC(=O)CCCCCCC |  | > 100
56 | n1onc2c1NC1Nc3nonc3NC1N2 (stereo not given) |  | > 100
57 | O=C(O)C1=CCCc2ccc3ccccc3c21 |  | > 100
58 | O=C(CCC(=O)Nc1cccc(Cl)c1)CC(=O)c1ccc(F)cc1 |  | > 100
59 | O=c1ccc(N=Nc2ccc([N+](=O)[O-])cc2)ccc1O | 7.04 µM | > 100
60 | O=C(Nc1nc(C23CC4CC(CC(C4)C2)C3)cs1)c1c(O)c2ccccc2[nH]c1=O |  | > 100
61 | CS(=O)(=O)OC1CN2CCC1CC2 (stereo not given) |  | > 100
62 | Cc1n[nH]c(=O)n1C1CCCC1 |  | > 100
63 | COc1cc2c(c(O)c1OC)C(O)C1CCC(=O)N1C2c1cccc2ccccc12 (stereo not given) |  | > 100
64 | Cc1cc2cc3cc(C)c(N(C)C)cc3[n+](C)c2cc1N(C)C | 5.13 µM | > 100
65 | CCC[CH2][Sn]([CH2]CCC)([O]C(=O)c1cc(F)ccc1F)[O][Sn]([CH2]CCC)([CH2]CCC)[O]C(=O)c1cc(F)ccc1F | 1.34 µM | 2.63
66 | N#CC(C(=O)/C(=N/NC(=O)c1ccccc1O)C(C#N)c1ccccc1)c1ccccc1 (stereo not given) |  | > 100
67 | Cc1cc(NCCCNc2ccnc3cc(Cl)ccc23)nc(N2CCN(C)CC2)n1 | 5.48 µM | 50.1
68 | COC(=O)c1cc2c3c(cc(N(C)C)c2[nH]1)N(C(=O)c1cc2cc(OC)c(OC)c(OC)c2[nH]1)CC3CCl (stereo not given) |  | 0.0209
69 | O=[N+]([O-])c1ccc2[nH]nc(OCc3ccccn3)c2c1 |  | > 100
70 | CC(=O)N1c2ccccc2C2=CC3C4C(=O)N(c5ccccc5)C(=O)C4C21C1C(=O)N(c2ccccc2)C(=O)C31 (stereo not given) |  | > 100
71 | COc1ccc2c(c1)=C(C=C1C=CN(O)C=C1)C(=O)N=2 | 19.4 µM | 62.2
